IC50 data for 28 compounds are collected here from patent US11618753B2 (priority 2018, dated 2023).

Structures are written as SMILES. pIC50: −log10 of the molar value.

The assay deals with MLKL phosphorylation, HT29-L23 human colorectal adenocarcinoma cells. The note with it: read-out: pMLKL HCS Cell Assay (IC50).
As to `CC(CC(=O)N1C[C@H](F)[C@H](NC(=O)c2cc(-c3cc(C(F)(F)F)c4c(N)ncnn34)cc(F)c2Cl)C1)C(F)(F)F` (single isomer, unassigned) [Example 1331], the pIC50 – broadly, −log10 of the IC50, conventionally taken in molar units – was 7.68.

Regarding `Nc1ncnn2c(-c3ccc(F)c(C(=O)N[C@@H]4CN(C(=O)C5CC(F)C5)C[C@@H]4F)c3F)cc(C(F)(F)F)c12` (stereo partly drawn) [Example 724, 3-[4-amino-5-(trifluoromethyl)pyrrolo[2,1-f][1,2,4]triazin-7-yl]-2,6-difluoro-N-[(3R,4S)-4-fluoro-1-(3-fluorocyclobutanecarbonyl)pyrrolidin-3-yl]benzamide], the pIC50 is 6.67.

With `COc1ncc(-c2cc(C(F)(F)F)c3c(N)ncnn23)cc1C(=O)N[C@@H]1CN(C(C)c2ccncc2)C[C@@H]1F` (single isomer, unassigned) [Example 439], the pIC50 is 7.96.

In the case of `COc1ncc(-c2cc(C(F)(F)F)c3c(N)ncnn23)cc1C(=O)NC1CN(C(=O)OCC2CC2(F)F)C[C@@H]1F` (stereo partly drawn) [Example 1459, (2,2-difluorocyclopropyl)methyl (3R,4S)-3-{5-[4-amino-5-(trifluoromethyl)pyrrolo[2,1-f][1,2,4]triazin-7-yl]-2-methoxypyridine-3-amido}-4-fluoropyrrolidine-1-carboxylate], the negative logarithm of the IC50 (pIC50) is 8.54.

With `COc1ncc(-c2cc(C(F)(F)F)c3c(N)ncnn23)cc1C(=O)NC1CN(C(C)c2ccc(F)cc2F)C[C@@H]1F` (stereo partly drawn) [Example 437, 5-[4-amino-5-(trifluoromethyl)pyrrolo[2,1-f][1,2,4]triazin-7-yl]-N-[(3R,4S)-1-[1-(2,4-difluorophenyl)ethyl]-1-4-fluoropyrrolidin-3-yl]-2-methoxypyridine-3-carboxamide], the negative-log IC50 (pIC50) was 7.92.

In the case of `CC(C(=O)N1C[C@H](F)[C@H](NC(=O)c2cc(-c3cc(C(F)(F)F)c4c(N)ncnn34)cc(F)c2Cl)C1)C(F)(F)F` (single isomer, unassigned) [Example 1328], the pIC50 is 7.15.

Consider `COc1ncc(-c2cc(C(F)(F)F)c3c(N)ncnn23)cc1C(=O)N[C@@H]1CN(C2CCCC2(C)C)C[C@@H]1F` (stereo partly drawn) [Example 1379, 5-[4-amino-5-(trifluoromethyl)-pyrrolo[2,1-f][1,2,4]triazin-7-yl]-N-[(3R,4S)-1-(2,2-dimethylcyclopentyl)-4-fluoro-pyrrolidin-3-yl]-2-methoxy-pyridine-3-carboxamide], for which the pIC50 was 6.87.

Turning to `CCc1c(F)cc(-c2cc(C(F)(F)F)c3c(N)ncnn23)cc1C(=O)N[C@@H]1CN(C(=O)C2CC(F)C2)C[C@@H]1F` (stereo partly drawn) [Example 655, 5-[4-amino-5-(trifluoromethyl)pyrrolo[2,1-f][1,2,4]triazin-7-yl]-2-ethyl-3-fluoro-N-[(3R,4S)-4-fluoro-1-(3-fluorocyclobutanecarbonyl)pyrrolidin-3-yl]benzamide], the pIC50 is 8.17.

On to `CC(CC(=O)N1C[C@H](F)[C@H](NC(=O)c2cc(-c3cc(C(F)(F)F)c4c(N)ncnn34)cc(F)c2Cl)C1)C(F)(F)F` (single isomer, unassigned) [Example 1330], for which the pIC50 is 8.48.

`COc1cc(C(=O)N[C@@H]2CN(C(=O)C3CC(F)C3)C[C@@H]2F)cc(-c2cc(C(F)(F)F)c3c(N)ncnn23)c1` (stereo partly drawn) [Example 575, 3-[4-amino-5-(trifluoromethyl)pyrrolo[2,1-f][1,2,4]triazin-7-yl]-N-[(3R,4S)-4-fluoro-1-(3-fluorocyclobutanecarbonyl)pyrrolidin-3-yl]-5-methoxybenzamide]: the negative-log IC50 (pIC50) was 7.89.

Regarding `COc1ccccc1C(C)N1CC(NC(=O)c2cc(-c3cc(C(F)(F)F)c4c(N)ncnn34)cnc2OC)[C@@H](F)C1` (stereo partly drawn) [Example 1370, 5-[4-amino-5-(trifluoromethyl)-pyrrolo[2,1-f][1,2,4]triazin-7-yl]-N-[(3R,4S)-4-fluoro-1-[1-(2-methoxyphenyl)ethyl]-pyrrolidin-3-yl]-2-methoxy-pyridine-3-carboxamide], the pIC50 was 6.91.

As to `COc1ncc(-c2cc(C(F)(F)F)c3c(N)ncnn23)cc1C(=O)NC1CN(C(C)c2cc(F)cc(F)c2)C[C@@H]1F` (stereo partly drawn) [Example 458, 5-[4-amino-5-(trifluoromethyl)pyrrolo[2,1-f][1,2,4]triazin-7-yl]-N-[(3R,4S)-1-[1-(3,5-difluorophenyl)ethyl] 1-4-fluoropyrrolidin-3-yl]-2-methoxypyridine-3-carboxamide], the pIC50 is 8.24.

With `Cc1ncc(-c2cc(C(F)(F)F)c3c(N)ncnn23)cc1C(=O)NC1CN(C(=O)C2CCC(F)CC2)C[C@@H]1F` (stereo in doubt) [Example 360, 5-[4-amino-5-(trifluoromethyl)pyrrolo [2,1-f][1,2,4]triazin-7-yl]-N-[4-fluoro-1-(4-fluorocyclohexanecarbonyl)pyrrolidin-3-yl]-2-methylpyridine-3-carboxamide], the pIC50 is 7.60.

Turning to `CCCC(N)(C(=O)N1CC(NC(=O)c2cc(-c3cc(C(F)(F)F)c4c(N)ncnn34)cnc2OC)[C@@H](F)C1)C(F)(F)F` (single isomer, unassigned) [Example 1546], the pIC50 is 7.77.

On to `COc1ncc(-c2cc(C(F)(F)F)c3c(N)ncnn23)cc1C(=O)NC1CN(C(=O)OC(C)C(F)(F)C(F)(F)F)C[C@@H]1F` (stereo partly drawn) [Example 1458, 3,3,4,4,4-pentafluorobutan-2-yl (3R,4S)-3-{5-[4-amino-5-(trifluoromethyl)pyrrolo[2,1-f][1,2,4]triazin-7-yl]-2-methoxypyridine-3-amido}-4-fluoropyrrolidine-1-carboxylate], for which the pIC50 was 8.09.

Consider `COc1ncc(-c2cc(C(F)(F)F)c3c(N)ncnn23)cc1C(=O)NC1CN(C2CCCC2C(O)C(F)F)C[C@@H]1F` (stereo partly drawn) [Example 1366, 5-[4-amino-5-(trifluoromethyl)-pyrrolo[2,1-f][1,2,4]triazin-7-yl]-N-[(3R,4S)-1-[2-(2,2-difluoro-1-hydroxyethyl)-cyclopentyl]-4-fluoro-pyrrolidin-3-yl]-2-methoxy-pyridine-3-carboxamide], for which the pIC50 was 7.08.

With `COc1ncc(-c2cc(C(F)(F)F)c3c(N)ncnn23)cc1C(=O)NC1CN(C2CCCCC2(C)O)C[C@@H]1F` (stereo partly drawn) [Example 1414, 5-[4-amino-5-(trifluoromethyl)-pyrrolo[2,1-f][1,2,4]triazin-7-yl]-N-[(3R,4S)-4-fluoro-1-(2-hydroxy-2-methylcyclo-hexyl]pyrrolidin-3-yl]-2-methoxypyridine-3-carbox-amide], the negative logarithm of the IC50 (pIC50) is 7.07.

`Cc1cc(F)c(-c2cc(C(F)(F)F)c3c(N)ncnn23)cc1C(=O)N[C@@H]1CN(C(=O)C2CC2(F)F)C[C@@H]1F` (single isomer, unassigned) [Example 861]: the negative logarithm of the IC50 (pIC50) is 8.21.

In the case of `Cc1cc(F)c(-c2cc(C(F)(F)F)c3c(N)ncnn23)cc1C(=O)N[C@@H]1CN(C(=O)C2CC2(F)F)C[C@@H]1F` (single isomer, unassigned) [Example 862], the pIC50 was 6.99.

Take `COc1ncc(-c2cc(CN3CCC(F)(F)CC3)c3c(N)ncnn23)cc1C(=O)N[C@@H]1CN(C(=O)OC(C)CC(F)(F)F)C[C@@H]1F` (stereo partly drawn) [Example 1506, 4,4,4-trifluorobutan-2-yl (3R,4S)-3-(5-{4-amino-5-[(4,4-difluoropiperidin-1-yl)methyl]pyrrolo[2,1-f][1,2,4]triazin-7-yl}-2-methoxypyridine-3-amido)-4-fluoropyrrolidine-1-carboxylate]: the negative logarithm of the IC50 (pIC50) is 8.37.

For `COc1ncc(-c2cc(C(F)(F)F)c3c(N)ncnn23)cc1C(=O)N[C@@H]1CN(C2CCCC2C)C[C@@H]1F` (stereo partly drawn) [Example 1378, 5-[4-amino-5-(trifluoromethyl)-pyrrolo[2,1-f][1,2,4]triazin-7-yl]-N-[(3R,4S)-4-fluoro-1-(2-methylcyclopentyl)pyrrolidin-3-yl]-2-methoxypyridine-3-carboxamide], the pIC50 was 7.77.

With `COc1ncc(-c2cc(C(F)(F)F)c3c(N)ncnn23)cc1C(=O)N[C@@H]1CN(C(C)c2cccc(C#N)c2)C[C@@H]1F` (single isomer, unassigned) [Example 435], the pIC50 was 8.22.

With `COc1ncc(-c2cc(C(F)(F)F)c3c(N)ncnn23)cc1C(=O)N[C@@H]1CN(C2CCCCC2(C)O)C[C@@H]1F` (stereo partly drawn) [Example 1410, 5-[4-amino-5-(trifluoromethyl)-pyrrolo[2,1-f][1,2,4]triazin-7-yl]-N-[(3R,4S)-4-fluoro-1-(2-hydroxy-2-methylcyclohexyl)-pyrrolidin-3-yl]-2-methoxy-pyridine-3-carboxamide], the pIC50 was 6.57.

As to `COc1ncc(-c2cc(C(F)(F)F)c3c(N)ncnn23)cc1C(=O)N1CCCC(C(O)c2ccc(F)cc2)C1` (single isomer, unassigned) [Example 1732, (5-(4-amino-5-(trifluoromethyl)pyrrolo[2,1-f][1,2,4]triazin-7-yl)-2-methoxypyridin-3-yl)(3-((4-fluorophenyl)(hydroxy)methyl)piperidin-1-yl)methanone], the pIC50 is 7.09.

On to `COc1ncc(-c2c(C#N)cc3c(N)ncnn23)cc1C(=O)N[C@@H]1CN(C(=O)C2CCC(C(F)(F)F)CC2)C[C@@H]1F` (single isomer, unassigned) [Example 557], for which the pIC50 is 5.70.

On to `COc1ncc(-c2cc(C(F)(F)F)c3c(N)ncnn23)cc1C(=O)NC1CN(C(C)C(C)O)C[C@@H]1F` (stereo partly drawn) [Example 1409, 5-[4-amino-5-(trifluoromethyl)-pyrrolo[2,1-f][1,2,4]triazin-7-yl]-N-[(3R,4S)-4-fluoro-1-(3-hydroxybutan-2-yl)pyrrolidin-3-yl]-2-methoxypyridine-3-carboxamide], for which the negative-log IC50 (pIC50) was 6.65.

On to `COc1ncc(-c2cc(C(F)(F)F)c3c(N)ncnn23)cc1C(=O)NC1CN(C2CCCC2C(O)C(F)F)C[C@@H]1F` (stereo partly drawn) [Example 1373, 5-[4-amino-5-(trifluoromethyl)-pyrrolo[2,1-f][1,2,4]triazin-7-yl]-N-[(3R,4S)-1-[2-(2,2-difluoro-1-hydroxyethyl)-cyclopentyl]-4-fluoro-pyrrolidin-3-yl]-2-methoxy-pyridine-3-carboxamide], for which the negative logarithm of the IC50 (pIC50) is 7.70.

For `COc1ncc(-c2cc(C(F)(F)F)c3c(N)ncnn23)cc1C(=O)NC1CN(C(C)C2CCC(F)(F)C2)C[C@@H]1F` (stereo partly drawn) [Example 1385, 5-[4-amino-5-(trifluoromethyl)-pyrrolo[2,1-f][1,2,4]triazin-7-yl]-N-[(3R,4S)-1-[1-(3,3-difluorocyclopentyl)ethyl]-4-fluoropyrrolidin-3-yl]-2-methoxypyridine-3-carbox-amide], the pIC50 is 7.80.
